Consider 24 compounds from PubChem BioAssay AID1346428 (National Center for Advancing Translational Sciences (NCATS), 2018).

About 1,200 (2.5%) of roughly 48,000 compounds were called active. About 2% were inconclusive and are not listed.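 How the source made its calls: active means activation of at least 60% and not above a set upper limit (about 1 call in 100 departs from these limits); inconclusive means activation of 40% to 60%, or above that upper limit; inactive means activation under 40%.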 The list shows a part of the results.

The target of this assay is Probable G-protein coupled receptor 32 (Homo sapiens) (UniProt O75388). As to the kind of experiment: qHTS for Agonists of Human Resolvin D1 Receptor DRV1. Further: 0% is about no effect. The settings on record: CHO-K1 GPR32 beta-arrestin PathHunter luminescence, 90 min; at 76.9 µM; active compounds read high; zero percent set by DMSO-only wells. A digest of the protocol: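 Using DMSO wells as EC0, agonist-induced signal was taken as chemiluminescence from beta-Gal reconstituted upon beta-arrestin recruitment to GPR32 in CHO-K1 cells after 90 min compound treatment.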
Sequence of UniProt O75388 (O75388 whole entry, looked up): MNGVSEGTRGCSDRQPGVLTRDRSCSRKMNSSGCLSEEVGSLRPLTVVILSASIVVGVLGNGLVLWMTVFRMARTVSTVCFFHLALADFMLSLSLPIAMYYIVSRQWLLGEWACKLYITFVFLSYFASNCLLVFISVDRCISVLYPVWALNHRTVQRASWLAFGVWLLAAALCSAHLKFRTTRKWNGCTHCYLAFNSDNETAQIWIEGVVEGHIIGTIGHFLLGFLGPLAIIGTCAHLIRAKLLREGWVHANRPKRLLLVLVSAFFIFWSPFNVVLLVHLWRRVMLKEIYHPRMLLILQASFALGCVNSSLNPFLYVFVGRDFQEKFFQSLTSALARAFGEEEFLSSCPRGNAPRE
As to `Cc1ccc(C)c(S(=O)(=O)c2cn(C)c3cc(F)c(F)cc3c2=O)c1`, the activation is inactive: -8.46%. For the compound `CCc1cccc(NC(=O)c2c(N3CCCC3=O)c3cc(C)ccc3n2C)c1`, the activation is inactive: 42.3%. As for `CC(=O)Nc1ccccc1-c1nc2ccccc2n(CC(=O)Nc2ccc(C)c(Cl)c2)c1=O`, the activation is inactive: -9.79%. Regarding `COc1ccc(CCn2c(=O)c3ccccc3n(CC(=O)Nc3cccc(C)c3)c2=O)cc1OC`, the activation is inactive: -8.62%. Then `CNC(=O)CN(CCN(CCN(CC(=O)[O-])CC(=O)NC)CC(=O)[O-])CC(=O)[O-].O.[Gd+3]`, with inactive: 11.5%; and `Cc1ccc(S(=O)Cc2ccc(C(=O)NC3CCCCCC3)o2)cc1` (centres undefined), with inactive: -1.61%. With `Cc1ccc(NC(=O)CSc2nc3c(c(=O)[nH]2)CCC3)cc1Cl`, the activation was inactive: 39.3%. Then `Cc1ccccc1CN1C(=O)c2ccccc2S(=O)c2ccc(C(=O)NCc3ccco3)cc21` (centres undefined), with inactive: -20.7%; and `Cc1[nH]c2ccc(C(=O)Nc3ccc(F)cc3)cc2c1C`, with inactive: 3.75%. In the case of `CCN(C(=O)CCS(=O)(=O)c1ccc2c(c1)oc(=O)n2C)c1ccc(OC)cc1`, the activation is inactive: 5.89%. In the case of `O=S(=O)(c1ccc(Br)cc1)c1nc(-c2cccs2)oc1SCc1ccc(F)cc1`, the activation was inactive: -19%.

Turning to `CCn1c(COc2cccc(C)c2)nc2ccccc21`, the activation was inactive: -9.03%. Take `CCS(=O)(=O)N1CCC2(CC1)OC(=O)C(C)=C2C(=O)NCc1cccc(Cl)c1`: the activation is inactive: -45.8%. With `Cc1ccc(C)c(N2CCN(C(=O)C3CCN(C(=O)c4cc5sccc5n4C)CC3)CC2)c1` the figure was inactive: 15.5%; with `Cc1ccccc1NS(=O)(=O)c1ccc2c(c1)NC(=O)CCS2`, inactive: 42.5%. Turning to `COc1cc2c(cc1NC(=O)COc1ccc(Br)cc1C)oc1ccccc12`, the activation was inactive: -19.7%. Then `CC(C)CCNC(=O)CCC(=O)N1Cc2ccccc2Oc2ncccc21`, with inactive: -3.12%. With `CCn1c(SCC(=O)Nc2ccccc2)nc2c([nH]c3ccccc32)c1=O` the figure was inactive: 25.9%. Then `CCNC(=O)C1CCN(c2nc3ccccc3nc2C(F)(F)F)CC1`, with inactive: -9.46%; and `O=C(CSc1nc2c([nH]c3ccccc32)c(=O)n1-c1ccccc1)NCc1ccc(F)cc1`, with inactive: -69.4%. Turning to `CCc1ccc2occ(CC(=O)Nc3nnc(C)s3)c2c1`, the activation is inactive: -9.28%. `CCc1ccccc1NC(=O)CC(C)S(=O)(=O)c1ccc2c(c1)NC(=O)CO2` (centres undefined): the activation is inactive: 27.1%.

Regarding `CC(=O)c1nn(-c2ccc(OC(F)(F)F)cc2)nc1Nc1ccc(Cl)cc1`, the activation is inactive: 3.55%.

Take `CCOc1ccc(NC(=O)Cn2cc(S(=O)(=O)c3ccc(C)cc3)c(=O)c3cc(F)ccc32)cc1`: the activation is inactive: -15.3%.
